From publication PMC6919601, “Identification of Plasmodium dipeptidyl aminopeptidase allosteric inhibitors by high throughput screening” (PLoS ONE, 2019)
Hit rate of the full screen: of about 110,000 compounds, about 230 (0.21%) showed an effect of 50% or more. This is one part of the list.

The compounds below were run against DPAP1 (Plasmodium falciparum, UniProt Q8IIJ9) (assay: primary screen, percent inhibition; read by cleavage of a fluorogenic dipeptide substrate; higher = more effect of the substance).
Parameters: species or system P. falciparum D10 trophozoite lysates; single well
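Also: 30 min substrate incubation versus DMSO and 10 µM JCP410 controls.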

Sequence of DPAP1 (Q8IIJ9 whole entry, looked up): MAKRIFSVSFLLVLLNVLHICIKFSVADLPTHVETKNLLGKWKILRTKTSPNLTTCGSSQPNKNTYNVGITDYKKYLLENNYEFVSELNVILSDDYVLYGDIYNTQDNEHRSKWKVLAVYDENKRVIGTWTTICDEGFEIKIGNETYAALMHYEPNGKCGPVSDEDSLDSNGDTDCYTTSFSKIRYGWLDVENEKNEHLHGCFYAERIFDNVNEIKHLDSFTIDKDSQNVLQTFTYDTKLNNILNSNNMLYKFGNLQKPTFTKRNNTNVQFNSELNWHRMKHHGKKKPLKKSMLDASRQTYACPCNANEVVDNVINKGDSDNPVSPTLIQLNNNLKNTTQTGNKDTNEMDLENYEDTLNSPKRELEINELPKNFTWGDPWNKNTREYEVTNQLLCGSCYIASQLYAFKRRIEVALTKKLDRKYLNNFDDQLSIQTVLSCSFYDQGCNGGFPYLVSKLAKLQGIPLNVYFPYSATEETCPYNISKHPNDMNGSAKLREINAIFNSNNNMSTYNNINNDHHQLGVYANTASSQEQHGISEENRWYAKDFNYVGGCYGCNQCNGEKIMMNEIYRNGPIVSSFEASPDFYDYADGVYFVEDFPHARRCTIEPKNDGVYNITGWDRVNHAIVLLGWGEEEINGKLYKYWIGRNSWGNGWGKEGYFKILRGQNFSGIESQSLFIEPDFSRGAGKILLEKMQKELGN

Row | Structure (SMILES) | % Inhibition @ 10 uM
1 | O=C(Nc1cc(Cl)c(Cl)cc1Cl)c1ccc([N+](=O)[O-])cc1 | -1.22%
2 | O=C(Cc1ccccc1)Nc1c(C(=O)N2CCCCCC2)cnn1-c1ccccc1 | -2.13%
3 | COc1cc(NC(=O)c2ccc(NC(=O)C(C)C)cc2)c(OC)cc1Cl | 1.8%
4 | O=S(=O)(NCC1CCN(Cc2ccco2)CC1)c1ccc(-c2cc(C(F)(F)F)no2)s1 | 3.08%
5 | O=C1NC(=S)N/C1=C/c1ccc(Br)cc1 | -2.55%
6 | O=C(c1nn2c(c1Br)NC(c1cccs1)CC2C(F)(F)F)N1CCCCC1 (stereo not drawn) | 1.03%
7 | Cn1c(CN2CCOCC2)nnc1SCc1ccc(Cl)cc1 | 4.94%
8 | CCCCC1C(=O)NC(=S)N(c2ccccc2)C1=O (stereo not drawn) | 3.76%
9 | CC(C)C[C@H](NC(=O)c1ccc(Oc2cccc(N(C)C)c2)cc1)C(=O)NCC#N | -5.64%
10 | CC(=O)Nc1ccc(/N=C/c2c(C)nn(-c3ccccc3)c2O)cc1 | -8.28%
11 | Clc1ccc(C2=NN(c3ccccc3)C(c3ccc(Cl)cc3)C2)cc1 (stereo not drawn) | 5.37%
12 | CCOc1ccc(NC2=CC(=O)CC(c3ccccc3)C2)cc1 (stereo not drawn) | 0.673%
13 | COc1ccc(F)cc1S(=O)(=O)n1cc(C)nc1-c1ccccc1 | 1.76%
14 | CCc1ccc(CNC(=O)C2CCCN(c3ncnc4onc(C)c34)C2)cc1 (stereo not drawn) | -4.7%
15 | Cc1ccc(S(=O)(=O)c2nnn(-c3cccc(F)c3)c2N)cc1 | -7.8%
16 | Cc1ccc(C)c(S(=O)(=O)NCc2ccc(C(=O)Nc3ccc4c(c3)OCCO4)cc2)c1 | 2.4%
17 | Cc1ccc(C)c(Cn2c(C(=O)O)c(CNCCCc3ccccc3)c3ccccc32)c1 | -3.21%
18 | O=CN1CCN(Cc2ccc(-c3ccc(Cl)cc3)o2)CC1 | -3.5%
19 | CCN1C(=O)/C(=C\c2ccc(Cl)cc2)N=C1SCC(=O)NCc1ccccc1 | 2.68%
20 | O=C(Nc1ccc(F)c(Cl)c1)Nc1ccc(Cl)c(Cl)c1 | -0.414%
21 | CSc1sc(C(C)=O)c(N)c1-c1ccc(Cl)cc1 | 1.02%
22 | COc1cccc(/C=C/c2cc(C(F)(F)F)nc(O)n2)c1OC | -4.97%
23 | COc1ccccc1C1C(C#N)=C(N)Oc2[nH]nc(-c3cccs3)c21 (stereo not drawn) | 2.38%
24 | O=C(c1cnn2c(C(F)(F)F)cc(-c3ccc(Br)cc3)nc12)N1CCOCC1 | 7.09%
25 | Cc1cccc(C)c1OCC(O)CN1C(C)CCCC1C (stereo not drawn) | 8.01%

Row | Structure (SMILES) | % Inhibition @ 10 uM
26 | Cc1ccc(CNC(=O)C2CCN(S(=O)(=O)c3c(C)noc3/C=C/N(C)C)CC2)cc1 | -8.42%
27 | O=C(Cn1ncc2c3ccccc3n(Cc3ccccc3)c2c1=O)NCCC1=CCCCC1 | 3.4%
28 | Cc1nn(-c2ccccc2)c2c1C1(C)CC(C)(O2)c2c(C)nn(-c3ccccc3)c2O1 | 3.35%
29 | Cc1c(C(=O)Nc2ccc(Cl)cn2)sc2nc3n(c(=O)c12)CCCCC3 | 0.658%
30 | CC(C)(C)c1nnc(NC(=O)c2ccccc2O)s1 | 16.9%
31 | COc1cccc(C2CC(c3ccc(C)c(C)c3)Nc3ncnn32)c1OC (stereo not drawn) | -1.48%
32 | COc1ccc(-c2nc(CS(=O)(=O)CC(=O)NC3CCC(C)CC3)c(C)o2)cc1 (stereo not drawn) | -5.58%
33 | Cc1nn(C)c(C(=O)N2CCN(C(=O)c3ccco3)CC2)c1Br | -4.82%
34 | COc1ccc(CNC(=O)CN2C(=O)C3CCCN3c3ncc(Cl)cc32)cc1 (stereo not drawn) | -2.85%
35 | COc1ccc(NC(=O)c2cc(S(=O)(=O)N3CCS(=O)(=O)CC3)ccc2Cl)cc1 | -5.57%
36 | O=C(NCc1ccc2c(c1)OCO2)c1cc2c(Cl)ccc3c2n1CCO3 | 2.15%
37 | S=C(NNc1ccccc1)NC12CC3CC(CC(C3)C1)C2 | 2.94%
38 | COCCCN1C(=O)S/C(=C/c2cc(C)n(-c3ccc(OC)cc3)c2C)C1=O | 0.709%
39 | COc1ccc(OC)c(CCNC(=O)CN2C(=O)CSc3ncccc32)c1 | 1.03%
40 | Cc1cccc(C2NCCc3c2[nH]c2ccccc32)c1 (stereo not drawn) | -0.446%
41 | CCOc1ccc(CCNC(=O)CCN2N=C(c3ccccc3)CCC2=O)cc1OCC | -4.53%
42 | Cc1ccc(CN(CC(=O)N2CCCCCC2)S(=O)(=O)c2ccc(C)cc2)cc1 | -5.27%
43 | C=CCOc1ccc(/C=c2\sc3ncnn3c2=O)cc1 | 0.487%
44 | CCC(C)NC(=O)c1ccccc1NS(=O)(=O)c1ccc(NC(C)=O)cc1 (stereo not drawn) | -0.872%
45 | CCCCN(CCCC)C(=O)CCNS(=O)(=O)c1cc(Br)cnc1N | 1.96%
46 | COc1ccc(CCCC(=O)Nc2ccccc2F)cc1 | -2.94%
47 | CCOc1ccc(C2CC(c3cccc(OC)c3OC)n3nnnc3N2)cc1Cl (stereo not drawn) | -3.37%
48 | COc1ccc(C2C(C(=O)C(C)(C)C)=C(O)C(=O)N2c2ccc(C)cc2)cc1 (stereo not drawn) | -5.26%
49 | O=C(C1=C(O)C(=O)N(c2ccccc2)C1c1ccc(F)cc1)c1ccccc1 (stereo not drawn) | -0.28%
50 | O=C(CSc1ccccc1C(=O)O)NC1CCCCC1 | -1.11%

Row | Structure (SMILES) | % Inhibition @ 10 uM
51 | Cc1ccc(S(=O)(=O)c2cnc3cc4c(cc3c2O)OCO4)cc1 | -7.13%
52 | Cc1cccc(NC(=O)COc2ccc(Cl)cc2C2C3=C(O)CCCC3=NC3=C2C(=O)CCC3)c1 (stereo not drawn) | -6.2%
53 | CC1(C)CC(=O)C2=C(C1)OC(c1ccccc1)=CC2c1ccccc1 (stereo not drawn) | -5.82%
54 | CCC(C)NC(=O)Cn1c(=O)n(CC(=O)NCc2ccc(C)cc2)c(=O)c2sccc21 (stereo not drawn) | -0.591%
55 | O=C(NCCOCC(F)(F)C(F)F)C(=O)c1cn(Cc2ccc(F)cc2)c2ccccc12 | -4.42%
56 | CC1(C)CC(=O)c2c(O)cc(=O)n(-c3cccc(Cl)c3)c2C1 | 0.726%
57 | N#C/C(=C\c1ccccc1)c1nc(-c2ccccc2)cs1 | -3.82%
58 | Cn1c(=O)c2c(nc(SCC(N)=O)n2Cc2cccc(Cl)c2)n(C)c1=O | 0.751%
59 | CC(=O)c1sc(N2C(=O)c3oc4ccc(C)cc4c(=O)c3C2c2ccc(F)cc2)nc1C (stereo not drawn) | 3.73%
60 | O=C(Nc1ccccc1)c1ccc(CSc2ccccn2)cc1 | 3.62%
61 | O=C1CCCC2=C1c1ccc3ccccc3c1NC2c1ccc(O)c(O)c1 (stereo not drawn) | 4.32%
62 | CC(C)(C)OC(=O)N1CCC(c2c(C(=O)N3CCOCC3)cnn2-c2ccccc2)CC1 | -2.53%
63 | Cc1ccsc1/C=C1\Sc2ccccc2C1=O | 3.92%
64 | O=C(c1ccc(CSc2nc3ccncc3[nH]2)cc1)N1CCN(c2ccccn2)CC1 | 1.8%
65 | CCCS(=O)(=O)N1CCCC(C(=O)N2CCN(c3ccccn3)CC2)C1 (stereo not drawn) | 1.62%
66 | Cc1cc(N2CCCCC2C)n2ncnc2n1 (stereo not drawn) | -0.0108%
67 | O=S(=O)(c1c[nH]cn1)N1CCN(c2ccccn2)CC1 | -3.61%
68 | Cc1ccc(-n2nc(C)c3c(C)c(CCC(=O)N4CCC(C(N)=O)CC4)c(C)nc32)cc1C | -4.24%
69 | CNc1nc(C)c(C(=O)OCc2ccccc2)s1 | -1.47%
70 | CC(C)NC(=O)c1ccc(Cn2cc(Cl)cn2)cc1 | 0.687%
71 | Cc1nc2ccc(NC(=S)N3CC4CC3CC(C)(C)C4C)cc2nc1C (stereo not drawn) | -1.99%
72 | CCCC(=O)Nc1nc2c(s1)C(=O)CC(C)(C)C2 | -4.12%
73 | COc1ccccc1C(=O)CC1(O)C(=O)Nc2ccc(Br)cc21 (stereo not drawn) | 2.44%
74 | COc1ccc(CCCC(=O)Nc2ccccc2OC)c(C)c1 | -14.5%
75 | COc1ccccc1NC(=O)c1c(C(=O)O)cccc1[N+](=O)[O-] | -8.77%

Row | Structure (SMILES) | % Inhibition @ 10 uM
76 | CC(CCN1CCN(c2ccccc2)CC1)c1ccccc1 (stereo not drawn) | 1.38%
77 | COc1ccc(CCn2cnc3sc4c(c3c2=N)CCCC4)cc1OC | -7.09%
78 | CCN(CC)C(=O)c1cc(-c2ccc(O)cc2)on1 | -2.74%
79 | COc1ccc(CN2CCN(Cc3ccc(OC)c(OC)c3OC)CC2)cc1Br | -9.07%
80 | COc1cc(/C=N/N=C2\CC(c3ccccc3)N=N2)ccc1OCC(=O)O (stereo not drawn) | -3.36%
81 | COc1ccc(CN(C(=O)c2cc(=O)c3ccc(C)cc3o2)C2CCS(=O)(=O)C2)cc1OC (stereo not drawn) | -1.47%
82 | COC(=O)c1ccc2oc(=O)c(S(=O)(=O)c3ccc(OC)cc3)cc2c1 | -0.326%
83 | Cc1cc(C)n(-c2nc3ccccc3s2)n1 | -2.28%
84 | O=C1CCC(=O)N1CCn1c2ccc(Br)cc2c2nc3ccccc3nc21 | 3.24%
85 | COc1ccc(S(=O)(=O)N2CCC(C(=O)NCc3cccnc3)CC2)cc1 | -2.14%
86 | C=CCc1cc(/C=C2/SC(=O)N(C)C2=O)cc(OCC)c1O | -4.7%
87 | COC(=O)c1sc2nc3c(c(-c4ccc(C)o4)c2c1N)CCCC3 | -4.11%
88 | CN1CCCN(Cc2ccc(Br)s2)CC1 | -3.56%
89 | O=C(Nc1cccnc1)C(Sc1ccccc1)c1ccccc1 (stereo not drawn) | 2.36%
90 | Cc1cc(C)nc(NS(=O)(=O)c2ccc(NC(=O)COc3ccccc3C(C)C)cc2)n1 | -0.297%
91 | O=C1CCCN1CP(=O)(O)CN1CCCCC1 | -0.582%
92 | O=S(=O)(Nc1ccccn1)c1ccc(Cl)cc1 | 4.81%
93 | CC(=O)c1ccc(NC(=O)CC(C)(C)C)cc1 | -1.38%
94 | Cc1cc(C)nc(N=C(N)N)n1 | -1.52%
95 | COc1ccc(NC(=O)C(C)Oc2ccccc2C)cc1 (stereo not drawn) | -2.76%
96 | CCOP(=O)(OCC)C(O)c1ccccc1 (stereo not drawn) | 1.54%
97 | CCOc1ccc(S(=O)(=O)Nc2ccc(S(=O)(=O)Nc3ccc(Cl)cc3)cc2)cc1 | 1.64%
98 | CCOc1ccc2nc(N3CCCC(C(=O)NCCN4CCOCC4)C3)sc2c1 (stereo not drawn) | 1.8%
99 | CN1C(=O)S/C(=C\c2cc(Cl)c(OCC(=O)O)c(Cl)c2)C1=O | -6.87%
